# Results reported in the supplement of paper PMC8728848.
# This is one part of the list.
# B1: CIH1 (Colletotrichum higginsianum) (protein)
# chain: LPQATPTTPTPTSASAAATISATSSPTCSPGPVIDYTVVSGDTLTIISQRFSSGICNIADASGITNPNFLSLGQVLQVPTYVCTPDNTSCLAKEGSDTCVEGGPATHTIVAGDTFFLVAQSLGLDVNALLAANEGVDPLLLQIGDVINIPVC
# How the values were obtained:
# Experiment in all cases: glycan array binding signal (z-score within array); higher = stronger binding
# Conditions in all cases: glycan notation: IUPAC condensed, linker removed
# [1] = biological target: Gal(a1-3)Gal(b1-3)GlcNAc
# In short: (§1)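 From the Consortium for Functional Glycomics database, 3228 arrays were curated, keeping only those whose protein sequence was available. Binding is given as a within-array Z-score averaged across arrays sharing a protein sequence and across linkers. Negative Z-scores can be read as non-binding.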
# [2] = biological target: Gal(a1-3)Gal(b1-3)GlcNAc(b1-2)Man(a1-3)[Gal(a1-3)Gal(b1-3)GlcNAc(b1-2)Man(a1-6)]Man(b1-4)GlcNAc(b1-4)GlcNAc
# In short: as §1
# [3] = biological target: Gal(a1-3)Gal(b1-3)GlcNAc(b1-3)GalNAc
# In short: as §1
# [4] = biological target: Gal(a1-3)Gal(b1-3)GlcNAc(b1-6)GalNAc
# In short: as §1
# [5] = biological target: Gal(a1-3)Gal(b1-3)[Fuc(a1-4)]GlcNAc(b1-2)Man(a1-3)[Gal(a1-3)Gal(b1-3)[Fuc(a1-4)]GlcNAc(b1-2)Man(a1-6)]Man(b1-4)GlcNAc(b1-4)GlcNAc
# In short: as §1
# [6] = biological target: Gal(a1-3)Gal(b1-4)Glc
# In short: as §1
# [7] = biological target: Gal(a1-3)Gal(b1-4)GlcNAc
# In short: as §1
# [8] = biological target: Gal(a1-3)Gal(b1-4)GlcNAc(b1-3)GalNAc
# In short: as §1
# [9] = biological target: Gal(a1-3)Gal(b1-4)GlcNAc(b1-6)GalNAc
# In short: as §1
# [10] = biological target: Gal(a1-3)Gal(b1-4)[Fuc(a1-3)]GlcNAc
# In short: as §1
# [11] = biological target: Gal(a1-3)Gal(b1-4)[Fuc(a1-3)]GlcNAc(b1-2)Man(a1-3)[Gal(a1-3)Gal(b1-4)[Fuc(a1-3)]GlcNAc(b1-2)Man(a1-6)]Man(b1-4)GlcNAc(b1-4)GlcNAc
# In short: as §1
# [12] = biological target: Gal(a1-3)GalNAc
# In short: as §1
# [13] = biological target: Gal(a1-3)[Gal(a1-4)]Gal(b1-4)GlcNAc
# In short: as §1
# [14] = biological target: Gal(a1-4)Gal(b1-3)GlcNAc(b1-2)Man(a1-3)[Gal(a1-4)Gal(b1-3)GlcNAc(b1-2)Man(a1-6)]Man(b1-4)GlcNAc(b1-4)GlcNAc
# In short: as §1
# [15] = biological target: Gal(a1-4)Gal(b1-4)Glc
# In short: as §1
# [16] = biological target: Gal(a1-4)Gal(b1-4)GlcNAc
# In short: as §1
# [17] = biological target: Gal(a1-4)Gal(b1-4)GlcNAc(b1-2)Man(a1-3)[Gal(a1-4)Gal(b1-4)GlcNAc(b1-2)Man(a1-6)]Man(b1-4)GlcNAc(b1-4)GlcNAc
# In short: as §1
# [18] = biological target: Gal(a1-4)Gal(b1-4)GlcNAc(b1-3)Gal(b1-4)Glc
# In short: as §1
# [19] = biological target: Gal(a1-4)GlcNAc
# In short: as §1
# [20] = biological target: Gal(a1-6)Glc
# In short: as §1
# [21] = biological target: Gal(b1-2)Gal
# In short: as §1
# [22] = biological target: Gal(b1-3)Gal
# In short: as §1
# [23] = biological target: Gal(b1-3)Gal(b1-4)GlcNAc
# In short: as §1
# [24] = biological target: Gal(b1-3)Gal(b1-4)GlcNAc(b1-2)Man(a1-3)[Gal(b1-3)Gal(b1-4)GlcNAc(b1-2)Man(a1-6)]Man(b1-4)GlcNAc(b1-4)GlcNAc
# In short: as §1
# [25] = biological target: Gal(b1-3)GalNAc
# In short: as §1
# [26] = biological target: Gal(b1-3)GalNAc(a1-3)[Fuc(a1-2)]Gal(b1-4)Glc
# In short: as §1
# [27] = biological target: Gal(b1-3)GalNAc(a1-3)[Fuc(a1-2)]Gal(b1-4)GlcNAc
# In short: as §1
# [28] = biological target: Gal(b1-3)GalNAc(b1-3)Gal(a1-4)Gal(b1-4)Glc
# In short: as §1
# [29] = biological target: Gal(b1-3)GalNAc(b1-4)Gal(b1-4)Glc
# In short: as §1
# [30] = biological target: Gal(b1-3)GalNAc(b1-4)[Neu5Ac(a2-3)]Gal(b1-4)Glc
# In short: as §1
# [31] = biological target: Gal(b1-3)GlcNAc
# In short: as §1
# [32] = biological target: Gal(b1-3)GlcNAc(a1-3)Gal(b1-4)GlcNAc
# In short: as §1
# [33] = biological target: Gal(b1-3)GlcNAc(a1-6)Gal(b1-4)GlcNAc
# In short: as §1
# [34] = biological target: Gal(b1-3)GlcNAc(b1-2)Man(a1-3)[Gal(b1-3)GlcNAc(b1-2)Man(a1-6)]Man(b1-4)GlcNAc(b1-4)GlcNAc
# In short: as §1
# [35] = biological target: Gal(b1-3)GlcNAc(b1-2)Man(a1-3)[Gal(b1-3)GlcNAc(b1-2)Man(a1-6)]Man(b1-4)GlcNAc(b1-4)[Fuc(a1-6)]GlcNAc
# In short: as §1
# [36] = biological target: Gal(b1-3)GlcNAc(b1-2)Man(a1-3)[GlcNAc(b1-4)][Gal(b1-3)GlcNAc(b1-2)Man(a1-6)]Man(b1-4)GlcNAc(b1-4)GlcNAc
# In short: as §1
# [37] = biological target: Gal(b1-3)GlcNAc(b1-2)[Gal(b1-3)GlcNAc(b1-6)]Man(a1-6)[Gal(b1-3)GlcNAc(b1-2)Man(a1-3)]Man(b1-4)GlcNAc(b1-4)GlcNAc
# In short: as §1
# [38] = biological target: Gal(b1-3)GlcNAc(b1-3)Gal(b1-3)GlcNAc
# In short: as §1
# [39] = biological target: Gal(b1-3)GlcNAc(b1-3)Gal(b1-4)Glc
# In short: as §1
# [40] = biological target: Gal(b1-3)GlcNAc(b1-3)Gal(b1-4)GlcNAc
# In short: as §1
# [41] = biological target: Gal(b1-3)GlcNAc(b1-3)Gal(b1-4)GlcNAc(b1-6)[Gal(b1-3)GlcNAc(b1-3)]Gal(b1-4)Glc
# In short: as §1
# [42] = biological target: Gal(b1-3)GlcNAc(b1-3)Gal(b1-4)[Fuc(a1-3)]GlcNAc(b1-6)[Gal(b1-3)GlcNAc(b1-3)]Gal(b1-4)Glc
# In short: as §1
# [43] = biological target: Gal(b1-3)GlcNAc(b1-3)GalNAc
# In short: as §1
# [44] = biological target: Gal(b1-3)GlcNAc(b1-6)Gal(b1-4)GlcNAc
# In short: as §1
# [45] = biological target: Gal(b1-3)GlcNAc(b1-6)GalNAc
# In short: as §1
binder,measurement,setting,value
B1,glycan array binding signal (z-score),[1],-0.061
same,glycan array binding signal (z-score),[2],-0.062
same,glycan array binding signal (z-score),[3],-0.069
same,glycan array binding signal (z-score),[4],-0.046
same,glycan array binding signal (z-score),[5],-0.063
same,glycan array binding signal (z-score),[6],-0.076
same,glycan array binding signal (z-score),[7],-0.069
same,glycan array binding signal (z-score),[8],-0.067
same,glycan array binding signal (z-score),[9],-0.053
same,glycan array binding signal (z-score),[10],-0.064
same,glycan array binding signal (z-score),[11],0.011
same,glycan array binding signal (z-score),[12],-0.072
same,glycan array binding signal (z-score),[13],-0.085
same,glycan array binding signal (z-score),[14],-0.053
same,glycan array binding signal (z-score),[15],-0.078
same,glycan array binding signal (z-score),[16],-0.075
same,glycan array binding signal (z-score),[17],-0.06
same,glycan array binding signal (z-score),[18],-0.068
same,glycan array binding signal (z-score),[19],-0.052
same,glycan array binding signal (z-score),[20],-0.08
same,glycan array binding signal (z-score),[21],-0.06
same,glycan array binding signal (z-score),[22],-0.072
same,glycan array binding signal (z-score),[23],-0.048
same,glycan array binding signal (z-score),[24],-0.058
same,glycan array binding signal (z-score),[25],-0.072
same,glycan array binding signal (z-score),[26],-0.059
same,glycan array binding signal (z-score),[27],-0.065
same,glycan array binding signal (z-score),[28],-0.071
same,glycan array binding signal (z-score),[29],-0.063
same,glycan array binding signal (z-score),[30],-0.047
same,glycan array binding signal (z-score),[31],-0.051
same,glycan array binding signal (z-score),[32],-0.07
same,glycan array binding signal (z-score),[33],-0.089
same,glycan array binding signal (z-score),[34],-0.028
same,glycan array binding signal (z-score),[35],-0.06
same,glycan array binding signal (z-score),[36],-0.067
same,glycan array binding signal (z-score),[37],-0.068
same,glycan array binding signal (z-score),[38],-0.076
same,glycan array binding signal (z-score),[39],-0.034
same,glycan array binding signal (z-score),[40],-0.063
same,glycan array binding signal (z-score),[41],-0.047
same,glycan array binding signal (z-score),[42],-0.057
same,glycan array binding signal (z-score),[43],-0.06
same,glycan array binding signal (z-score),[44],-0.064
same,glycan array binding signal (z-score),[45],-0.061
